According to patent US20050181998A1 (APPLIED RESEARCH SYSTEMS ARS HOLDING N.V., priority 2001, published 2005):

Conditions: human plasma and rat brain homogenate, 37° C.
Description: The peptides of the invention were prepared as a 1 μg/μl solution in water.
20 μl of the peptide solution was diluted in 80 μl of fresh human plasma or 80 μl of 10% rat brain homogenate. The solution was incubated at 37° C. for different time periods and the reaction was stopped by adding a complete <> of protease inhibitors. The bulk of the plasma proteins (none of the peptide) were precipitated in cold methanol (mix/MeOH, ⅘, v/v) for one hour at −20° C. The precipitated proteins were pelleted by centrifugation (10,000 rpm, 10 min, 4° C.). The supernatant, containing the peptide, was concentrated 5 times under vacuum and separated by reverse-phase HPLC. The peak area corresponding to the intact peptide was measured and compared with an equivalent sample incubated without plasma.

Row | Structure (SMILES) | stability (peptide degradation)
1 | CC(=O)N1CCC[C@H]1C(=O)N[C@@H](C)C(=O)N[C@@H](C)C(=O)NCC(N)=O [Ac-PAAG-Am, Ac-PAAG-NH2] (Ac-PAAG-NH2) | dramatically increased
2 | C[C@H](NC(=O)[C@H](C)NC(=O)[C@@H]1CCCN1)C(=O)NCC(=O)O [PAAG] (H-PAAG-OH) | short stability
3 | C[C@@H](NC(=O)[C@@H](C)NC(=O)[C@H]1CCCN1)C(=O)NCC(=O)O [paag] (H-[dP][dA][dA]G-OH) | dramatically increased

Where a SMILES comes first, the peptide text is derived from it. [ ]: non-standard residue; d: D form.
